# In PubChem BioAssay AID488969 (Vanderbilt High Throughput Screening Facility, 2010):
# “And” between values parts separate entries of the source, which are not always exact repeats. Equal entries are not always repeated. Over roughly 110,000 compounds, “z-score” has its median near -0.1; the highest 2% begin near 2. The list shows a part of the results. The source made the active and inactive calls.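 Rule for the calls: active = z-score in the third read window above 3 or below -3; inactive = the rest.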
# Target: Metabotropic glutamate receptor 8 (Rattus norvegicus) (UniProt P70579)
# Chain of UniProt P70579 (P70579 whole entry, looked up): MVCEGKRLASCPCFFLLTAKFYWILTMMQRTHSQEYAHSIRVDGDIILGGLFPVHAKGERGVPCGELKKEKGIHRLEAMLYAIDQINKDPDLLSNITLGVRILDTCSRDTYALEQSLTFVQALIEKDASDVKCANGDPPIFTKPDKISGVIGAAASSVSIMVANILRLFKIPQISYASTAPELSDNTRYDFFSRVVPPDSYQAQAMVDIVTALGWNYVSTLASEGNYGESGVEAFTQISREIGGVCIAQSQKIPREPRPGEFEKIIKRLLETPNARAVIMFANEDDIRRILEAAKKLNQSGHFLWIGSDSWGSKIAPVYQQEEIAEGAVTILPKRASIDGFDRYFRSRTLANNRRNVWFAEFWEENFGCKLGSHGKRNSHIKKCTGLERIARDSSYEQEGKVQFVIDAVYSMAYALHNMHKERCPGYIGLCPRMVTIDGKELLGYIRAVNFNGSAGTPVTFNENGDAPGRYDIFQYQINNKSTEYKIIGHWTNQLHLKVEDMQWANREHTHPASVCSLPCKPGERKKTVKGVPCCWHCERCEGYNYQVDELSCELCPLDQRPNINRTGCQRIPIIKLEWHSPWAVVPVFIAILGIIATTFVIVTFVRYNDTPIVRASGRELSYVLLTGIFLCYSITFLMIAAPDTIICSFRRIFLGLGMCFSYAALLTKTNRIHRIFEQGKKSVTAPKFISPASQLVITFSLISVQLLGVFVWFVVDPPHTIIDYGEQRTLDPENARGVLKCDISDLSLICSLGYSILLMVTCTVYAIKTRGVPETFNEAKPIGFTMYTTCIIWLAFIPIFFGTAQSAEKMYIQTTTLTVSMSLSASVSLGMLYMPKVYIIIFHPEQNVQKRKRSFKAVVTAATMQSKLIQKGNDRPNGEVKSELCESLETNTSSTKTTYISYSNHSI
# Experiment: rat mGluR8 modulators via GIRK flux, primary screen, cell-based, thallium flux, HTS (AID 488969)
# Conditions: HEK293 rat mGluR8, GIRK (G protein-gated inwardly rectifying potassium channel) thallium flux, FluoZin2; at 10 µM; stronger effect = higher value; submaximal glutamate (EC20) added with thallium
row,Structure (SMILES),z-score
1,Cc1nc(N2CCN(c3ccccc3)CC2)nc2c1C(=O)CC(C)C2 (stereo not drawn),-0.907
2,CC(=O)c1c(C)[nH]c(C(=O)OC(C)C(=O)Nc2cc(S(=O)(=O)N3CCCCC3)ccc2Cl)c1C (stereo not drawn),-0.199
3,CC(C)(C)S(=O)(=O)c1ccsc1C(=O)O,-0.136
4,CC(C)(C)N1CC(c2nc3ccccc3n2Cc2ccccc2)CC1=O (stereo not drawn),-0.396
5,Cn1cccc1/C=N/n1c(-c2ccc(C(C)(C)C)cc2)n[nH]c1=S,1.58
6,CCN(CC)S(=O)(=O)c1cc(-c2nnc(-c3ccc(Br)cc3)o2)ccc1Cl,-0.538
7,Cc1cccc(C)c1Nc1nnc(SCC(=O)Nc2cc(S(=O)(=O)N3CCCCC3)ccc2Cl)s1,-0.142
8,Cc1ccc(-c2csc3ncnc(SCC(=O)Nc4nnc(C)s4)c23)cc1,0.0561
9,Cc1ccc2nc(Nc3nc(CSc4nnnn4-c4ccccc4)cc(=O)[nH]3)nc(C)c2c1,-0.118
10,NC(N)=N/N=C/c1ccc(OCc2ccc(Cl)cc2)cc1,0.337
11,COCc1nnc(NS(=O)(=O)c2ccc(C)cc2)s1,0.241
12,CN(C)CCCNCCCNC(=O)c1ccncc1,-0.0691
13,COc1ccc(Cc2noc(COc3ccc(Cl)cc3)n2)cc1,-0.523
14,CCc1cccc(Nc2c([N+](=O)[O-])cc(C(=O)N3CC(=O)Nc4ccccc43)cc2[N+](=O)[O-])c1,-1.1
15,Cc1cc(=O)oc2cc(OCc3nnc(-c4ccccc4Br)o3)ccc12,0.455
16,CCOc1ccc(Br)cc1S(=O)(=O)Nc1cccc(S(=O)(=O)N(CC)CC)c1,-0.403
17,N#CCC(=N)N1CCN(c2ccc(Cl)cc2)CC1,0.16
18,Oc1ccc(/C=N/Nc2ncnc3c2ncn3Cc2ccccc2)cc1O,-0.31
19,O=C(COC(=O)c1ccc[nH]c1=O)NCC1CCCO1 (stereo not drawn),1.3
20,COCC(C)n1c(C)cc(C(=O)COC(=O)c2n[nH]c3ccccc23)c1C (stereo not drawn),-0.0689
21,C=CCNc1cnn(-c2ccc(C)cc2)c(=O)c1Cl,-0.126
22,CN(Cc1ccccc1)C(=O)COc1ccccc1,0.95
23,CC1CCC2(CC1)Nc1ccccc1C(=O)N2c1ccccc1 (stereo not drawn),-0.807

row,Structure (SMILES),z-score
1,O=C1C(C=Nc2ccccc2O)=C(O)c2ccccc21,-0.401
2,O=C(N/N=C\C=C\c1ccc2c(c1)OCO2)c1cccnc1,-0.156
3,CCCCNC(=S)NNC(=O)c1nn(C)cc1Cl,0.00599
4,Cc1sc2nc(CN(Cc3cccs3)C(=O)C3CC3)[nH]c(=O)c2c1C,0.3
5,O=C(CSc1nnc(CNC(=O)c2c(F)cccc2Cl)o1)c1ccccc1,0.121
6,N#Cc1ccc(C(=O)NCC(c2ccco2)N2CCCCC2)cc1 (stereo not drawn),0.912
7,CSCC[C@H](NC(=O)OC(C)(C)C)c1nnc(SCC(N)=O)o1,0.407
8,Cc1ccc(C)c(NC(=O)Cn2nnc(C(=O)NCc3cccs3)c2N)c1,-0.227
9,Cc1cnc(C(=O)OCC(=O)Nc2cc(Cl)cc(Cl)c2)cn1,-0.619
10,O=C(OCn1nnc2ccccc2c1=O)c1ccco1,0.452
11,Cn1c(C(=O)OC(C(=O)NCc2ccco2)c2ccncc2)cc2sccc21 (stereo not drawn),-0.173
12,CCN1CCN(S(=O)(=O)c2cccc3nsnc23)CC1,0.524
13,Cc1ccc(C(=O)N2CCN(C(=O)c3ccc(C)c(C)c3)C(C)C2)cc1C (stereo not drawn),-0.738
14,CCN(CC)CCCNC1CCS(=O)(=O)C1 (stereo not drawn),0.0097
15,Nc1nc(COc2ccccc2)cs1,-0.178
16,CCOC(=O)COc1cc(Br)c(/C=N/Nc2ccccc2)cc1OC,-0.0959
17,COc1ccc(OCCCn2cc(/C=C3/C(=N)N4C=C(C)SC4=NC3=O)c3ccccc32)cc1,0.177
18,Oc1c(C=C2N=c3ccccc3=N2)sc(=S)n1C1CCCCC1,0.0198 and -0.0716
19,Cc1ccc(-n2c(O)c(C=NCc3ccccn3)c3ccccc3c2=O)cc1C,-1.08
20,O=C(CN1CCN(c2ccccc2)CC1)Nc1cccc(C(F)(F)F)c1,0.756
21,O=C(Cn1c(=O)oc2cc(S(=O)(=O)N3CCc4ccccc43)ccc21)N1CCCCC1,-0.0758
22,CCN(CC)CCN1C(=O)C(O)=C(C(=O)c2cc3ccccc3o2)C1c1cccnc1 (stereo not drawn),-0.315
23,CCOC(=O)Cn1ncc2c(=O)oc3ccccc3c21,-0.414

row,Structure (SMILES),z-score
1,O=C(CC(c1ccco1)C1CCCCC1=O)c1ccccc1 (stereo not drawn),-0.656
2,Cc1ccc(N2C(=O)c3ccc(C(=O)Nc4cccnc4)cc3C2=O)c(C)c1,-0.14
3,COc1ccc(CNC(=O)CCc2c(C)nc3ncnn3c2C)cc1,0.418
4,N#Cc1c(-c2ccco2)nc(SCc2ccc(F)cc2)[nH]c1=O,active: -3.79
5,CCc1nnc(NC(=O)C2CCCN2S(=O)(=O)c2ccc(F)cc2)s1 (stereo not drawn),0.145
6,O=C(CCc1nc(-c2ccccc2)c(-c2ccccc2)o1)OCc1ccc(Cl)cc1,-1.75
7,COCCCn1ccc(O)c(Cc2ccc(F)cc2)c1=O,-0.0433
8,O=C(CSc1nc2c(c(=O)n1-c1ccc(Br)cc1)SCC2)NCc1ccco1,-0.951
9,COCCn1c(SCC(=O)N2CCCC2)nnc1C(C)C,0.377
10,CCNc1nc(Oc2ccc(=O)[nH]n2)nc(SC)n1,-0.413
11,CC(=O)SC(C)CC(=O)NCc1ccccc1 (stereo not drawn),-0.123
12,CNc1ccc(NC(C)=O)cc1[N+](=O)[O-],-0.0478
13,CCOc1nc(-c2ccccc2Cl)ccc1C#N,-0.245
14,O=C(Nc1ccc([N+](=O)[O-])cc1)C1(c2ccccc2)CCOCC1,-0.322
15,CC(=O)Nc1ccc(S(=O)(=O)N2CCSCC2)cc1,-0.212
16,O=C(Nc1cccnc1)C1(F)C(F)(F)C(F)(F)C(F)(F)C(F)(F)C1(F)F,-0.383
17,Cc1cc(C)c2nc(C(F)(F)F)c(C#N)c(N)c2c1,-0.281
18,COc1ccccc1NC(=O)CNC(=O)c1ccccc1,-0.0616
19,COC(=O)c1cn(NC(=O)C2COc3ccccc3O2)c(=O)c2ccccc12 (stereo not drawn),-0.0811
20,COc1ccc(-n2c(=O)c3ccccc3n(CC(=O)NC3CCCC3)c2=O)c(OC)c1,0.165
21,Cc1cc(C(F)(F)F)nn1Cc1n[nH]c(=S)n1-c1cccc(Cl)c1,-0.0907
22,CC(C)C(=O)Nc1nnc(SCC(=O)NCc2ccco2)s1,-0.0924
23,COC(=O)Cc1cc(=O)[nH]c(/N=C(/NC(=O)c2ccccc2)Nc2ccccc2C)n1,0.0803

row,Structure (SMILES),z-score
1,CN(C)CCCN(Cc1ccccc1)C(=S)Nc1cccc(C(F)(F)F)c1,1.48
2,Cc1cccc(C)c1NC(=O)CSc1ccc([N+](=O)[O-])cn1,-0.133
3,Cc1oc2ccc(NS(=O)(=O)c3cccc4cccnc34)cc2c1C(=O)OC(C)C,0.111
4,CCOC(=O)N1CCN(C(=O)CN(Cc2ccccc2)S(=O)(=O)c2ccc(OC)c(C)c2)CC1,-0.843
5,CN(CCCCCC(=O)/C=N/O)Cc1ccccc1,-0.147
6,O=C(CCCC(=O)OCC(Cl)=C(Cl)Cl)Nc1ccccc1,0.134
7,CC(=O)N1CCCc2ccccc21,0.0326
8,Cc1nn(-c2ccccc2)c(Cl)c1C(=O)NCCCCNC(=O)c1c(C)nn(-c2ccccc2)c1Cl,-0.3
9,COC(=O)CC(C(=O)Nc1cc(C(=O)OC)cc(C(=O)OC)c1)N1CCN(C)CC1 (stereo not drawn),0.00897
10,CC(C)NC(=O)/C(C#N)=C/c1ccc2c(c1)OCCO2,-0.394
11,Cc1cc(C)cc(N2C(=O)N(c3ccccc3C)C3CS(=O)(=O)CC32)c1 (stereo not drawn),0.0681
12,CC(C)(C)NC(=O)NC(=O)COC(=O)Cn1c(C(F)(F)F)nc2ccccc21,0.193
13,COc1ccc(OCC(=O)N2CCN(C(=O)c3cccc4ccccc34)CC2)cc1,-0.258
14,Nc1nc(COc2ccc3ccccc3c2)cs1,0.246
15,O=C(NCc1ccccn1)C1CCCN(Cc2cnn(-c3ccccc3)c2-n2cccc2)C1 (stereo not drawn),0.219
16,O=C(NNS(=O)(=O)c1ccc(Cl)cc1)NC1CCCCC1,-0.389
17,Cc1ccc(-c2nnc(SC(C)C#N)n2N)cc1 (stereo not drawn),0.313
18,Cc1ccc2nc(NCCCO)[nH]c2c1,-0.308
19,CNc1cc(N2CCCCCC2)ccc1[N+](=O)[O-],-0.663
20,O=C(O)CCc1n[nH]c(=S)[nH]c1=O,1.36
21,CCCCNC(=O)N1CCOCCOCCN(C(=O)NCCCC)CCOCC1,0.0288
22,CCOC(=O)C1=NNC2(c3ccc(Cl)cc3)C(=O)N(c3cc(C)cc(C)c3)C(=O)C12 (stereo not drawn),0.00802
23,Cc1cc(NC(=O)CCC(=O)N(c2ccccc2)C(C(=O)NC2CCCC2)c2ccncc2)no1 (stereo not drawn),-0.469

row,Structure (SMILES),z-score
1,Cc1ccc(C(=O)Nc2nc(=O)n(C(=O)CC(C)C)s2)cc1,-0.767
2,CC(C)c1nnc(NC(=O)c2cccs2)s1,0.0786
3,CCOC(=O)C1=NN(C(=O)c2ccco2)C2(CC2)C1,-0.239
4,CC1CC(=O)Nc2ccccc2N1S(=O)(=O)c1cccc(Cl)c1 (stereo not drawn),0.365
5,Cc1[nH]n(-c2ccccc2)c(=O)c1Sc1ccc(Cl)cc1,-0.147
6,Cc1ccc(C(C)C)c(OCC(=O)Nc2ccc(N3CCN(S(C)(=O)=O)CC3)cc2)c1,0.391
7,COc1ccc(N2CCN(C(CNC(=O)C(=O)NCC3CCCO3)c3ccco3)CC2)cc1 (stereo not drawn),-0.215
8,Cc1ccc(CSCC(N)C(=O)O)cc1 (stereo not drawn),-0.223
9,C=CCNC(=O)c1csc(-c2ccccc2)n1,0.0284
10,O=C(c1cc(F)c(F)cc1Cl)N1CCN(c2ccc([N+](=O)[O-])c3ncccc23)CC1,-0.694
11,O=S(=O)(c1ccc(-c2ccccc2)cc1)N1CCOCC1,0.0509
12,CC(C)OP(=O)(OC(C)C)C1(O)C(=O)Nc2ccc(Br)cc21 (stereo not drawn),0.116
13,O=S(=O)(Nc1cccnc1Cl)c1ccc2c(c1)OCCO2,0.122
14,N#Cc1nc(COc2ccccc2)oc1N1CCCCC1,-0.508
15,CC(=O)c1ccc2c(c1)C1C=CCC1C(c1ccc(S(=O)(=O)N3CCOCC3)cc1)N2 (stereo not drawn),0.23
16,COC(=O)c1sccc1NC(=O)Cn1nnc(-c2ccc(C)cc2)n1,-0.277
17,CCN(CC)Cc1c(O)ccc2c(=O)c(-c3ccc4c(c3)OCCO4)coc12,-0.0589
18,Cc1ccccc1Oc1ncnc2sccc12,0.0113
19,O=C(CN1CCCCCC1)N/N=C/c1cccc(Cl)c1Cl,-0.302
20,c1csc(-c2ncc3ccccn23)c1,-0.279
21,CCn1cc(C2=NOC(C(=O)Nc3cccc(C(C)=O)c3)C2)c(C)n1 (stereo not drawn),0.464
